Assay results published in PubChem BioAssay AID1159614 (National Center for Advancing Translational Sciences (NCATS), 2016).
Among all 45,000 compounds or so, about 65 (0.1%) were called active. Calls follow the shape of the dose curve; as a rule, active = well fitted activation curve with a large enough effect; inconclusive = small, poorly fitted or top-dose-only effect; inactive = no such curve, though single readings can be large or run the other way. The list shows a part of the results.

Target: Galactocerebrosidase (Homo sapiens) (UniProt P54803)
UniProt P54803, sequence (P54803 whole entry, looked up): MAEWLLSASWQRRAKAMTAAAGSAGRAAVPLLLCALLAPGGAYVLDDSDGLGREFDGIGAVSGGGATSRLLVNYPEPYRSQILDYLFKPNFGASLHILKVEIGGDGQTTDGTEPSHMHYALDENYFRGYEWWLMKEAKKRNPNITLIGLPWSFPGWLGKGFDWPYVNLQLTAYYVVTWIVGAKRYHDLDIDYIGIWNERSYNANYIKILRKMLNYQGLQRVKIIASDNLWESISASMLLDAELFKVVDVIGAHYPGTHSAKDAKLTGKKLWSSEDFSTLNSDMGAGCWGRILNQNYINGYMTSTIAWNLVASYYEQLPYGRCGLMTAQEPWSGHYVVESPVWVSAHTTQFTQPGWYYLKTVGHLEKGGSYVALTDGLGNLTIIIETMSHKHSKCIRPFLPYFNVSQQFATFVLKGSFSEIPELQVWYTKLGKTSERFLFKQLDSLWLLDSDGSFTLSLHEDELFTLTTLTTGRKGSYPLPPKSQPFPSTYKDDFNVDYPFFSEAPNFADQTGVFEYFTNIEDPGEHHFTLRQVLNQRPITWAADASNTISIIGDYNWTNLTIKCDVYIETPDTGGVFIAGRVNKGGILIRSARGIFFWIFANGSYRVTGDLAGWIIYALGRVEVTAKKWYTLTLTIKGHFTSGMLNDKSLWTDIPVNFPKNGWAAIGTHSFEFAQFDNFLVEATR
Experiment: A Novel Cell-Based Assay to Identify Small Molecules for B -Galactocerebrosidase; also: 0% is about no effect; nearly all actives have a fitted effect of over 65% in size
Details: 145M-Twi-hGALC-G270D cells (Twitcher mouse brain line with human GALC G270D), HMU-beta-Gal fluorescence, 48 h; series mostly up to 57.5 µM; activation: at the top concentration
Procedure, shortened: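 Fluorescence readout: HMU-β-gal cleavage by mutant GALC (0.1 mM final, citrate/phosphate pH 5.2 with 1 mg/mL taurocholate), stopped with carbonate/bicarbonate plus Triton X-100. Cells: murine Twitcher 145M-Twi expressing human G270D GALC; qHTS for activators.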

| Structure (SMILES) | activation |
| --- | --- |
| O=C(CSc1nncn2c1cc1sccc12)Nc1ccc(Br)cc1F | inactive: -11.1% |
| CCOC(=O)c1c(C)oc2nc(C)nc(NCc3ccc(OC)cc3OC)c12 | inactive: -8.12% |
| CCc1ccccc1NC(=O)c1sc2nc3c(cc2c1N)CN(Cc1ccccc1)CC3 | inactive: 1.8% |
| COC(=O)c1cccnc1-n1c(=O)c2cccnc2n(CC(=O)Nc2ccccc2F)c1=O | inactive: -21.9% |
| Clc1cccc(-n2ncc3c(N4CCC(Cc5ccccc5)CC4)ncnc32)c1 | inactive: -16.4% |
| Cc1cc(C)cc(NC(=O)C(=O)NCC(c2cccnc2)N2CCc3ccccc3C2)c1 (stereo unspecified) | inactive: -17.2% |
| CCCCNC(=O)C1CCC(Cn2c(=O)c3sccc3n(CC(=O)N3CCCC3)c2=O)CC1 (stereo unspecified) | inactive: -24.5% |
| CCc1ccc(NC(=O)CCn2nc(C)c(S(=O)(=O)N3CCCCC3)c2C)cc1 | inactive: -26.2% |
| O=C(Cn1c(=O)nc(-c2ccccc2)c2ccccc21)NCc1ccc(Cl)cc1 | inactive: -5.56% |
| COc1cc(C2C(C(=O)Nc3ccccc3C)=C(C)Nc3ncnn32)ccc1OCC(N)=O (stereo unspecified) | inactive: -1.49% |
| CCOc1ccccc1NC(=O)C1CCN(S(=O)(=O)c2ccc3c(c2)CC(C)N3C(C)=O)CC1 (stereo unspecified) | inactive: -10.1% |
| COc1cccc(N2CCN(S(=O)(=O)c3ccc(-n4cnnn4)cc3)CC2)c1 | inactive: -15.7% |
| CCOc1ccc(Cn2c(CNS(=O)(=O)c3ccc(Cl)s3)nc3cccnc32)cc1 | inactive: 2.47% |
| CCOC(=O)c1ccccc1NC(=O)Cn1c(=O)n(-c2cccc(C)c2)c(=O)c2c1c1cc(C)ccc1n2C | inactive: -11.9% |
| COc1ccc2c(C)cc(SCC(=O)Nc3nsc(-c4ccccc4C)n3)nc2c1 | inactive: -7.06% |
| O=C(NCc1ccc(Cl)cc1)C(=O)NCC(c1cccs1)S(=O)(=O)c1cccs1 (stereo unspecified) | inactive: -6.75% |
| Nc1ccc(N2CCN(c3ncc(C(F)(F)F)cc3Cl)CC2)c(C(F)(F)F)c1 | inactive: -16.6% |
| COc1ccc(Nc2cc(C(=O)NCCCN3CCN(c4ccc(OC)cc4)CC3)c3ccccc3n2)cc1 | inactive: -8.82% |
| Cc1oc(C)c2c(=O)cc(-c3ccc4c(c3)OCO4)cc(OC(=O)c3cccc(Br)c3)c12 | inactive: -7.01% |
| O=C(CCn1cnnn1)Nc1ccc(F)cc1 | inactive: -10.4% |
| CN(c1ccccc1)S(=O)(=O)c1ccc(NC(=O)c2cc(=O)c3ccccc3o2)cc1 | inactive: 3.87% |
| Cc1ccc(NC(=O)CSc2ccc(-c3cccs3)nn2)cc1Cl | inactive: -2.83% |
| COCC(=O)NCc1nc2cccnc2n1Cc1ccc(F)cc1 | inactive: -10.2% |
| Cc1cc(NC(=O)c2cccc(Cl)c2)ccc1-c1cc2ccccc2oc1=O | inactive: -25.3% |

| Structure (SMILES) | activation |
| --- | --- |
| Cc1noc(-c2ccc(N3CCCCC3)c([N+](=O)[O-])c2)n1 | inactive: -17.4% |
| Cc1ccccc1CCNC(=O)c1ccc2c(c1)nc1n2CCC(C)C1 (stereo unspecified) | inactive: -16.9% |
| COc1ccc(-n2ncc(C(=O)NCCc3ccsc3)c2C2CCN(C(=O)OC(C)(C)C)CC2)cc1 | inactive: -7.17% |
| Cc1ccc(Cn2c(CNS(=O)(=O)c3ccc(F)c(Cl)c3)nc3cccnc32)cc1 | inactive: 21.6% |
| Cc1cn[nH]c1 | inactive: -31.5% |
| O=C1CS(=O)(=O)C2(C(=O)N(Cc3ccccc3)c3ccccc32)N1c1ccccc1 (stereo unspecified) | inactive: -25.4% |
| O=C(C1CCN(c2ncnc3c2nc2n3CCCCC2)CC1)N1CCN(c2cccc(Cl)c2)CC1 | inactive: -13.7% |
| COc1ccc(OC)c(CNC(=O)Cc2ccc(NC(=O)N3CCSc4ncccc43)cc2)c1 | inactive: -36.8% |
| COc1cc2c(cc1OC)C(COc1ccccc1OC)N(C(=O)COc1ccc(Cl)cc1)CC2 (stereo unspecified) | inactive: -18.6% |
| Cc1ccc(CCNC(=O)c2ccc3c(c2)nc2n3CCC(C)C2)cc1 (stereo unspecified) | inactive: -6.27% |
| COc1ccc(-c2noc(-c3ccc(N4CCN(c5ccccc5)CC4)c([N+](=O)[O-])c3)n2)cc1OC | inactive: -13.1% |
| CCOC(=O)C1(C)C=C(Nc2cccc(C(=O)O)c2)C(=O)N1c1cccc(C(=O)O)c1 (stereo unspecified) | inactive: -10.2% |
| Cc1cc(F)ccc1NS(=O)(=O)c1ccc(-n2cccn2)cc1 | inactive: -8.62% |
| Cc1ccc(CNS(=O)(=O)c2ccc3[nH]c4c(c3c2)CCCC4)cc1 | inactive: -8.5% |
| CCCCc1nn2c(=O)cc(COC(=O)c3ccc(NC(=O)c4ccccc4C)cc3)nc2s1 | inactive: -12.8% |
| Cc1cc(C)n(CCc2nc3c4ccccc4nc(N4CCN(c5ccccc5)CC4)n3n2)n1 | inactive: 0.85% |
| O=C(Nc1cccc(C(=O)OCc2cc(=O)n3nc(C4CC4)sc3n2)c1)c1cccc(F)c1 | inactive: -15.1% |
| Cc1ccc(N(CC(=O)N2CCN(c3ccccc3F)CC2)S(=O)(=O)c2c(C)noc2C)cc1 | inactive: -18.9% |
| Cc1ccc(CCNC(=O)C(NS(=O)(=O)c2ccc3c(c2)oc(=O)n3C)C(C)C)cc1 (stereo unspecified) | inactive: -1.73% |
| CCOC(=O)CSc1ccc2nnc(CCNS(=O)(=O)c3ccccc3)n2n1 | inactive: -4.11% |
| COc1ccc(NC(=O)CSc2nncn3c2cc2oc(C)cc23)cc1OC | inactive: -23.3% |
| Cc1ccc(N(CC(=O)Nc2cccc(F)c2)S(=O)(=O)c2cccs2)cc1 | inactive: -16.8% |
| CCOc1ccc(-n2c(SCC(=O)NCC3CCCO3)nc3c([nH]c4ccccc43)c2=O)cc1 (stereo unspecified) | inactive: -9.62% |
| COc1cc2c(cc1OC)C(COc1ccc3c(C)cc(=O)oc3c1)N(C(=O)c1cccc(C)c1)CC2 (stereo unspecified) | inactive: -15.3% |

| Structure (SMILES) | activation |
| --- | --- |
| COc1ccc(Cn2ccn(Cc3cccc(C)c3)c(=O)c2=O)cc1 | inactive: -7.01% |
| Cn1c(=O)c(=O)n(C)c2cc(S(=O)(=O)N3CCCC3C(=O)Nc3ccccc3F)ccc21 (stereo unspecified) | inactive: -2.1% |
| O=C(NCCc1ccccc1)c1ccc2c(c1)N(Cc1c(F)cccc1Cl)C(=O)CS2 | inactive: 6.14% |
| COCCCNC(=O)CCC(=O)N1Cc2cccc(OC)c2Oc2ncccc21 | inactive: -8.86% |
| CNC(=O)C1CCC(Cn2c(=O)c3sccc3n(Cc3ccc(F)cc3)c2=O)CC1 (stereo unspecified) | inactive: -7.76% |
| CCc1ccc(NC(=O)CSc2nccn2-c2ccc(OC)cc2)cc1 | inactive: -6.99% |
| CC(=O)N1CCCc2cc(S(=O)(=O)N3CCC(C(=O)NC4CCC(C)CC4)CC3)ccc21 (stereo unspecified) | inactive: -18.1% |
| CC1(C(=O)Nc2cccc(Br)c2)Cc2ccccc2C(=O)O1 (stereo unspecified) | inactive: -7.21% |
| Cc1ccccc1OCCSc1nc2ccc(NC(=O)c3ccccc3)cc2s1 | inactive: -16.7% |
| Cc1nc(-c2cccc(NC(=O)Nc3ccc([N+](=O)[O-])cc3)c2)no1 | inactive: -28.1% |
| NC(N)=NS(=O)(=O)c1ccc(N)cc1 | inactive: -6.48% |
| COC(=O)c1ccccc1NC(=O)c1ncoc1-c1ccco1 | inactive: -10.6% |
| CCn1c(C(=O)NCc2ccccc2C)cc2oc3ccccc3c21 | inactive: -8.22% |
| CCCc1cc(=O)oc2c3c(ccc12)OCN(Cc1ccc(OC)cc1)C3 | inactive: -20.1% |
| COc1cccc2c1cc1c(=O)n(CC(=O)NC3CCCCC3)nc(C)n12 | inactive: -15.3% |
| Cc1ccc(C(=O)Nc2cccc(OCc3cc(=O)n4c5c(sc4n3)CCCC5)c2)cc1 | inactive: -0.916% |
| COc1cc(C(=O)N2CCN(c3ccc(Nc4ccc(C)cc4)nn3)CC2)cc(OC)c1OC | inactive: 1.73% |
| CCCN1C(=O)c2[nH]nc(-c3ccccc3O)c2C1c1ccc(OCc2ccccc2)c(OC)c1 (stereo unspecified) | inactive: -4.66% |
| C[C@@H](O)[C@H]1C(=O)N2C(C(=O)O)=C([C@H]3CCCO3)S[C@H]12 | inactive: -11.2% |
| COC(=O)Cn1nc(C)c2c(C)n(-c3ccccc3)nc2c1=O | inactive: -9.57% |
| CCCc1cnc2c(c1SCC(=O)N1CCC(C)CC1)c(=O)n(C)c(=O)n2C | inactive: -10.9% |
| O=C(NCCc1ccccc1)c1sc2ncccc2c1-n1cccc1 | inactive: -27.8% |
| CCC1CCCCN1C(=O)Cn1c(=O)oc2cc(S(=O)(=O)N3CCCCC3)ccc21 (stereo unspecified) | inactive: 15.7% |
| Cc1ccc(NC(=O)c2cc3cc(C)ccc3n2C)cc1 | inactive: -11% |

| Structure (SMILES) | activation |
| --- | --- |
| NC(=O)CSc1oc(-c2ccco2)nc1S(=O)(=O)c1ccc(Cl)cc1 | inactive: -26.6% |
| CCOC(=O)c1ccc(NC(=O)Cn2c(=O)cc(C)c3c(C)nn(-c4cccc(F)c4)c32)cc1 | inactive: -9.7% |
| OCCN1CCN(CC/C=C2/c3ccccc3Sc3ccc(C(F)(F)F)cc32)CC1 | inactive: -21.2% |
| Cc1ccc(NC(=O)C(Cc2ccccc2)NS(=O)(=O)c2ccc3c(c2)oc(=O)n3C)cc1F (stereo unspecified) | inactive: 1.63% |
| O=C(Nc1nc2n(n1)C(c1ccc(F)cc1)C=C(c1ccccc1)N2)c1ccc(Cl)cc1 (stereo unspecified) | inactive: -4.22% |
| CCC(=O)N1c2ccccc2CC1C(=O)NCc1cccc(C)c1 (stereo unspecified) | inactive: -1.73% |
| CCN(CC)CCCNC(=O)Cn1nc(C)n2c(cc3sccc32)c1=O | inactive: -16.6% |
| Cc1ccccc1-c1nc(CS(=O)CC(=O)N2CCN(c3cc(Cl)ccc3C)CC2)c(C)o1 (stereo unspecified) | inactive: -6.6% |
| Cc1nn(S(=O)(=O)c2ccccc2)c(C)c1S(=O)(=O)N1CCC(C)CC1 | inactive: -31.3% |
| CCc1ccccc1NC(=O)Cn1ccn(-c2cc(C)cc(C)c2)c(=O)c1=O | inactive: -0.928% |
| COc1ccc(NC(=O)c2ccc3oc(=O)c(S(=O)(=O)c4ccc(C)cc4)cc3c2)cc1OC | inactive: -24.1% |
| CCOc1cccc(C2Nc3ccccc3-c3cc(C)nn32)c1O (stereo unspecified) | inactive: -18.2% |
| Clc1cccc(CSc2nncn3c2cc2sccc23)c1 | inactive: 0.56% |
| COc1ccc(OC)c(C(=O)c2c(N)c(-c3nc(-c4ccc(C)c(C)c4)cs3)c3ccccn23)c1 | inactive: 0.412% |
| Cc1ccc(C(=O)c2oc3ccccc3c2NC(=O)Cc2coc3cc(C)ccc23)cc1 | inactive: -20% |
| CCCCc1ccc(NC(=O)Cn2nnc3sc4c(c3c2=O)CCC(C)C4)cc1 (stereo unspecified) | inactive: -11.2% |
| COc1ccc(Cn2nnc3c(=O)[nH]c(C4CCCN(C(=O)c5ccc(C)cc5)C4)nc32)cc1 (stereo unspecified) | inactive: -9.68% |
| COc1ccc(CCNC(=O)Cn2c(=O)n(-c3ccc(C)c(C)c3)c(=O)c3c(C)c(C)sc32)cc1OC | inactive: -9.69% |
| CCCCCCCCCCCCCCCCCCNC(=O)OC1CCN(C(=O)OC[C@H](COC(=O)N(Cc2cccc[n+]2CC)C(=O)c2ccccc2OC)OC)CC1 | inactive: -11.6% |
| Cc1ccc(NC(=O)CSc2nc(C)c(Cc3ccccc3)c(=O)[nH]2)cc1C | inactive: -18.5% |
| CCn1c(=NC(=O)c2ccc3c(c2)OCCO3)sc2c(C)ccc(OC)c21 | inactive: -38.4% |
| CCOC(=O)C1(C)C=C(Nc2ccc(Br)cc2)C(=O)N1c1ccccc1 (stereo unspecified) | inactive: -6.1% |
| O=C(O)CCCCCCCC(=O)O | inactive: -17% |
| COc1cc(C(=O)CC2(O)C(=O)N(Cc3ccccc3Cl)c3ccccc32)cc(OC)c1OC (stereo unspecified) | inactive: -37.7% |
